# PubChem BioAssay AID488969 (Vanderbilt High Throughput Screening Facility, 2010)
# Whole data set: some 110,000 compounds, median “z-score” near -0.1, cut for the highest 2% near 2. This is one part of the list. Activity calls are given as the source filed them.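 Rule for the calls: active = z-score in the third read window above 3 or below -3; inactive = the rest.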
# Target: Metabotropic glutamate receptor 8 (Rattus norvegicus) (UniProt P70579)
# Test: mGluR8 Gi/Go-coupled signaling modulation – cell-based, rat, thallium flux, HTS, primary screen (AID 488969)
# Details: HEK293 rat mGluR8, GIRK (G protein-gated inwardly rectifying potassium channel) thallium flux, FluoZin2; at 10 µM; stronger effect = higher value; submaximal glutamate (EC20) added with thallium
# Sequence of UniProt P70579 (P70579 whole entry, looked up): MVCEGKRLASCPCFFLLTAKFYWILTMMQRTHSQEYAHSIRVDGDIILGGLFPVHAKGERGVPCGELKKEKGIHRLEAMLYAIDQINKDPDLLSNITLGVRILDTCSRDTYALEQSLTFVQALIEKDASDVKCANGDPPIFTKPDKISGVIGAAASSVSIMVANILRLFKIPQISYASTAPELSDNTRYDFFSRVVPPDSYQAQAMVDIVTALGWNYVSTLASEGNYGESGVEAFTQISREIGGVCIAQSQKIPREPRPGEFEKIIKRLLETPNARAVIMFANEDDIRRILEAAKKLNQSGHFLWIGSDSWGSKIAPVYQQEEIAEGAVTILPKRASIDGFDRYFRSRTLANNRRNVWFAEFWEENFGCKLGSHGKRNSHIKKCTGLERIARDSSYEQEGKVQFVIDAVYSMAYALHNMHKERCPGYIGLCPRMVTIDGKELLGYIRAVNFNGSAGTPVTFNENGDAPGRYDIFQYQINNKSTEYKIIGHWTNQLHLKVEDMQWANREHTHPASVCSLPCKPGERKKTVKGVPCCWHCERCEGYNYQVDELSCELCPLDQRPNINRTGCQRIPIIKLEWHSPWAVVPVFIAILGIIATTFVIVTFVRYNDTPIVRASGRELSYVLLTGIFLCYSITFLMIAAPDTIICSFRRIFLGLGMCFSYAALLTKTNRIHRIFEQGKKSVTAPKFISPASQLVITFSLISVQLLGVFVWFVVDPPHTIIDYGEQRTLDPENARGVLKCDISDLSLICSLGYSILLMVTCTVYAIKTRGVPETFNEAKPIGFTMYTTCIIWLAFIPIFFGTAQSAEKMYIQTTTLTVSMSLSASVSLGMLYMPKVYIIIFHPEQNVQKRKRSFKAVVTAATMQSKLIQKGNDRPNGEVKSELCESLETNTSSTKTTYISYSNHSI
row,Compound,z-score
1,O=C(NCc1ccc(Cl)cc1)c1cc2c(nc3sccn32)s1,-0.423
2,COc1ccccc1NC(=S)NNC(=O)c1cc(C)n(C)n1,-0.168
3,c1ccc(-c2cn3c(n2)SCC3)cc1,-0.712
4,Cc1ccc(CSCC(=O)Nc2ccc3c(c2)OCO3)cc1,1.73
5,COc1ccc(OCC(=O)Nc2ccc(N3CCOCC3)c(Cl)c2)cc1,-0.665
6,CCCCC(=O)Nc1ccc(NC(=O)CC)cc1OC,-0.0947
7,O=C(NC1CCCC1)C(c1cccs1)N(CC1CCCO1)C(=O)Cc1cccs1 (stereo not drawn),0.558
8,CCCOc1ccccc1C1CC(=O)NC2=C1C(=O)CCC2 (stereo not drawn),-0.715
9,Cc1ccc(NC2=CC(=O)CCC2)cc1C,-0.205
10,NC(=O)C1CCN(C(=O)CN2CCN(c3cccc(C(F)(F)F)c3)CC2)CC1,0.6
11,CC(C)N1CCc2c(sc(NC(=S)NC(=O)c3ccccc3)c2C#N)C1,0.514
12,CCOc1cc(N2CCOCC2)c(OCC)cc1NC(=O)CCS(=O)(=O)c1ccc(Cl)cc1,0.22
13,COc1ccc(-c2cc(OC(=O)c3ccc(F)cc3)c3c(C)oc(C)c3c(=O)c2)cc1,0.838
14,COc1ccccc1NCC(=O)N/N=C(\C)c1ccc(Br)s1,-0.279
15,COc1cc(C)c(N(C(C)=O)c2ccccc2)c(C)c1,0.803
16,OC(COC1CCCCC1)CN1CCN(c2ccccc2)CC1 (stereo not drawn),0.212
17,C=CCOC(=O)C(C#N)c1nc2ccccc2nc1N1CCN(c2ccccc2OCC)CC1 (stereo not drawn),0.34
18,Cc1cc(C)c(OCCOCCN2CCNCC2)c(C)c1,0.331
19,Cn1c(=O)n(Cc2ccccc2F)c(=O)c2c1nc1n2CCCN1CCc1ccccc1,-0.165
20,CCN(CC)c1ccc(NC(=O)CN2C(=O)CSc3ncccc32)c(C)c1,-0.253
21,CCOc1cccc(C(=O)N2CCCCC2c2cccnc2)c1 (stereo not drawn),-0.337
22,CCOC(=O)C1CCCN(C(=O)CN(c2ccc(OC)cc2)S(=O)(=O)c2c(C)noc2C)C1 (stereo not drawn),-0.0596
23,COc1ccc(-c2noc(CCN3C(=O)c4ccccc4C3=O)n2)cc1OC,-0.0499

row,Compound,z-score
1,O=C(c1cn(-c2ccccc2)nc1-c1ccncc1)n1nnc2ccccc21,-0.534
2,CCc1ccc(C2N3CC4([N+](=O)[O-])CN2CC([N+](=O)[O-])(C3)C4(C)C)cc1 (stereo not drawn),0.152
3,Cc1cc(C)n2nc(SCN3C(=O)c4ccccc4C3=O)nc2n1,-0.852
4,COC(CN(C(=O)CCl)C(C(=O)NC1CCCCC1)c1ccc(Cl)cc1)OC (stereo not drawn),-0.0173
5,Cc1cc(OCc2cn3cccnc3n2)ccc1Cl,-0.0973
6,CCOc1cc(C(=O)N2CCN(C/C=C/c3ccccc3)CC2)cc(OCC)c1OCC,-0.121
7,CC(=O)NCC(=O)N(C)C(C(=O)Nc1ccc2c(c1)OCCO2)c1ccccc1 (stereo not drawn),0.411
8,COc1ccccc1NC(=O)C(=O)N/N=C/c1cccs1,-0.198
9,COc1ccc(N(C(=O)c2ccccc2OC(C)=O)C(C)C2CC2)cc1 (stereo not drawn),0.376
10,COc1ccc2nc(Sc3c([N+](=O)[O-])nc(C)n3Cc3ccccc3)[nH]c2c1,-0.169
11,CC(C)n1cc(/C=C(\C#N)S(=O)(=O)c2ccccc2)c2ccccc21,-0.867
12,O=C(NCc1ccco1)c1ccc(Cn2c(=O)c3ccccc3n(Cc3cccc(F)c3)c2=O)cc1,-0.182
13,O=C(NN=C1C2CC3CC(C2)CC1C3)c1cccs1,0.589
14,Cc1c(Cc2ccc3c(c2)OCO3)sc(NC(=O)C(C)(C)C)c1C#N,0.122
15,CC(C)(C)c1ccc(S(=O)(=O)N2CC(=O)Nc3ccccc32)cc1,-0.23
16,O=C(CSc1nc2ccccc2s1)N1c2ccccc2Sc2ccc(C(F)(F)F)cc21,0.197
17,CC1=C(C(N)=O)C(c2sccc2C)n2nnnc2N1 (stereo not drawn),0.0641
18,Cc1ccc(-c2csc(NC(=O)C3=NN(c4ccccc4)C(=O)CC3)n2)cc1,0.0259
19,CCSc1nnc(NC(=O)C2C3C=CC(C3)C2C(=O)O)s1 (stereo not drawn),-1.01
20,COc1ccc2ccc3c(c2c1)N=C[C@]1(O3)N(C)c2ccccc2C1(C)C,-0.024
21,Clc1ccc2[nH]c(-c3ccccc3)cc2c1,-0.113
22,CCCCc1ccc(NC(=O)COc2ccc(C(=O)Nc3ccccc3OCC)cc2)cc1,-0.373
23,CSc1ccccc1-c1nnc(-c2ccccc2)o1,-0.616

row,Compound,z-score
1,COc1ccc(S(=O)(=O)N(C)CC(=O)NCCC2=CCCCC2)cc1C,-0.149
2,O=C(Nc1ccc2nsnc2c1)NC1CCCCC1,-0.224
3,CCC/C(=N/NC(=O)c1cccc(Cl)c1)c1ccccc1,active: 5.45
4,Fc1ccc(-c2ccc(-c3nn4c(-c5ccco5)nnc4s3)o2)cc1,1.38
5,CC1(C)N=C(c2ccccn2)C(C)(C)N1O,0.321
6,CC(CCc1ccccc1)NC(=O)C(=O)NCc1ccccc1 (stereo not drawn),-0.0826
7,COc1ccc(Cn2nnnc2C(c2ccc(C)cc2)N2CCN(C3CCCC3)CC2)cc1 (stereo not drawn),0.353
8,COc1ccc(N2CCN(C(CNS(=O)(=O)c3cccs3)c3cccnc3)CC2)cc1 (stereo not drawn),0.509
9,CCCC1CCC(C2=N/C(=C\c3ccc(OC)c(OC)c3)C(=O)O2)CC1 (stereo not drawn),0.153
10,CC(C)CC(=O)N1CCC(O)(CS(=O)(=O)Cc2ccccc2Cl)CC1,-0.0509
11,COC(=O)CSc1nc(C)c2ccc(OC)cc2n1,-0.356
12,Cc1ccc(C(c2c(C)nn(-c3ccccc3)c2N)c2c(C)nn(-c3ccccc3)c2N)cc1,-0.202
13,COC(=O)c1ccc(NC(=O)c2cccc(Cl)c2)o1,-0.0827
14,O=C(CSc1nc2c([nH]c3ccccc32)c(=O)n1-c1ccc(F)cc1)NCc1ccco1,1.22
15,Cn1c(O)c(C2=c3ccccc3=NC2=O)[nH]c1=S,0.0696
16,CC(CC(=O)NC1CCCC1)c1ccccc1 (stereo not drawn),0.103
17,Cc1c(C(=O)O)cccc1-n1c(C)cc(/C=N/NC(=O)c2cc3ccccc3o2)c1C,0.261
18,Cc1cc(NC(=O)CCC(=O)N(Cc2ccco2)C(C)(C)C(=O)NC2CCCCC2)no1,-0.272
19,NC(=O)c1ccccc1NC(=O)/C=C/c1ccccc1,-0.217
20,COc1cc(OC)cc(-c2nc3ccccc3c(=O)n2NC(=O)c2cccnc2Cl)c1,-0.0673
21,O=c1oc(-c2cccs2)nc2sc3c(c12)CCCCC3,0.0702
22,CC(C)NC(=O)C(OC(=O)c1ccccc1)C(OC(=O)c1ccccc1)C(=O)O (stereo not drawn),-0.107
23,CCCn1nc(NC(=O)c2cccs2)c2cc3ccccc3nc21,-0.864

row,Compound,z-score
1,Cn1c(=O)c2c(ncn2CC(=O)OCC(=O)NC(c2ccccc2)c2ccccc2)n(C)c1=O,0.0294
2,CCC(NS(=O)(=O)c1ccc(C)cc1)C(=O)N1CCC2(O)CCCCC2C1 (stereo not drawn),-0.573
3,c1coc(-c2nc(-c3ccncc3)no2)c1,0.167
4,COc1ccccc1N1C(=O)CC(Sc2n[nH]c(-c3cccc(C)c3)n2)C1=O (stereo not drawn),-0.119
5,CCOC(=O)C(C)Sc1ncnc2nc[nH]c12 (stereo not drawn),-0.412
6,CCOc1ccc2nc(NC(=O)CS(=O)(=O)c3ccc(C)cc3)sc2c1,-0.503
7,Cc1nc2ccccc2c(=O)n1CCN1CCOCC1,-0.157
8,COc1ccc(N(CC(=O)NCc2ccco2)S(C)(=O)=O)cc1,-1
9,C(=C\c1nc(N2CCCC2)c2ccccc2n1)/c1ccccc1,-0.18
10,CCOC(=O)Nc1c(C(=O)OC)[nH]c2cccc(OC)c12,-0.131
11,Cc1ccc(Nc2nc3ccccc3[nH]2)nc1,-0.646
12,O=C(NC1CCCCCCC1)c1ccco1,-0.57
13,O=C(Nc1ccc(S(=O)(=O)N2CCc3ccccc3C2)cc1)C1CCCO1 (stereo not drawn),-0.149
14,O=C(CN1CCN(Cc2ccccc2)CC1)N/N=C\C=C/c1ccco1,0.161
15,C=C(C)c1cccc(C(C)(C)NC(=O)N2CCN(c3ncccn3)CC2)c1,0.293
16,CCOc1ccccc1CN1C(=O)c2ccccc2C1C(=O)NCC1CCCO1 (stereo not drawn),0.0424
17,CC(NC(=O)CSc1ncnc2nc[nH]c12)c1ccccc1 (stereo not drawn),-0.58
18,C=CCn1c(=O)n2ncnc2c2c3c(sc21)CCCC3,-2.31
19,CC(=O)c1cccc(NC(=O)CCS(=O)(=O)c2cccc3nsnc23)c1,0.176
20,COc1ccc(N2Nc3n[nH]c(N)c3N2)cc1,0.76
21,CCOC(=O)c1c(NC(=O)CC(C)C)sc(C(C)=O)c1C,0.78
22,COC(=O)/C(C#N)=C1/SC=C(C)N1c1ccccc1,0.185
23,CCC(C)(C(=O)NC1CCCC1)N(C(=O)c1ccccn1)c1ccc(C)cc1 (stereo not drawn),0.129

row,Compound,z-score
1,CCOC(=O)c1nnn(-c2nc(OC)nc(N3CCCC3)n2)c1-c1ccccc1,-0.519
2,O=C(c1ccc(Cl)cc1)N1CCCOC1,0.107
3,c1nc(N2CCCC2)c2[nH]cnc2n1,-0.102
4,Cc1cc(/C=N/NC(=O)COc2cccc3cccnc23)c(C)n1-c1ccc(O)cc1,-0.169
5,O=S(=O)(NC1=NCCC1)c1cccc(NS(=O)(=O)c2ccc(OC(F)(F)F)cc2)c1,-0.199
6,O=C(NCc1ccco1)C(Cc1ccccc1)NS(=O)(=O)c1cccc2nsnc12 (stereo not drawn),-0.0409
7,CC1(C)C2([N+](=O)[O-])CN3CC1([N+](=O)[O-])CN(C2)C31CCCC1,-0.176
8,COc1ccc(C2SCC(C(=O)O)N2C(C)=O)cc1 (stereo not drawn),0.181
9,CCOC(=O)Cc1sc(N)nc1C,-0.365
10,Nc1nc(N)c2sc3nc4c(cc3c2n1)CCC4,0.142
11,O=C(O)CCSc1nc2ccccc2s1,-0.145
12,CCn1c(=O)c(C(=O)CN2CCOCC2)c(N)n(Cc2ccccc2)c1=O,-0.0407
13,COCCNC(=O)c1ccc2ccccc2n1,-0.0969
14,CCOC(=O)c1c(C)n(C)c2ccc(OCC(O)CN3CCN(C)CC3)cc12 (stereo not drawn),-0.0858
15,Nc1cccc(-c2cn3cc(C(F)(F)F)cc(Cl)c3n2)c1,-0.0801
16,O=C1OC(Nc2ccc(F)cc2F)c2ccccc21 (stereo not drawn),-0.78
17,COc1ccc(OC)c(NC(=O)C23CCC(C)(C(=O)O2)C3(C)C)c1 (stereo not drawn),0.299
18,CC1=CC(C)(C)N(S(=O)(=O)c2ccc(C)cc2)c2ccccc21,0.0263
19,CCC(=O)Nc1ccc(C(=O)NNC(=O)C(c2ccccc2)c2ccccc2)cc1,-0.429
20,CCOC(=O)CC1(c2ccccc2)CCOC(C)(C)C1 (stereo not drawn),0.114
21,O=C(CCN1C(=O)c2ccccc2C1=O)N1CCN(C(=O)c2ccccc2)CC1,-0.116
